# Reference: PubChem BioAssay AID1460 (National Center for Advancing Translational Sciences (NCATS), 2008)
# Where “and” joins values, the source holds several entries; their conditions need not be identical. Equal entries are not always repeated. About 5,800 (2.1%) of roughly 270,000 compounds were called active. This list was built around the results that the source calls inconclusive (neither active nor inactive); the mix of calls is not that of the screen. The call rests on the fitted dose curve; in most records, active means well fitted inhibition curve with a large enough effect; inconclusive means small, poorly fitted or top-dose-only effect; inactive means flat fitted curve, though single readings scatter. Potencies of inconclusive entries are doubtful fits and often do not repeat.
# Target: Microtubule-associated protein tau (Homo sapiens) (UniProt P10636)
# Assay: qHTS for Inhibitors of Tau Fibril Formation, Thioflavin T Binding; further: nearly all actives have a fitted effect of over 55% in size
# Conditions: recombinant tau K18 P301L, heparin-induced fibrillization, ThT fluorescence; series mostly up to 57.4 µM
# Summary of the method: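 Using a mix of unlabeled (15 uM) and Alexa 594-labeled (0.24 uM) tau K18 P301L, heparin-triggered fibrillization over 6 hr at 37 C was scored by ThT fluorescence.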
# Potency means the concentration at half of the fitted maximal effect; tags describe the fitted curve by direction and shape.
# Sequence of UniProt P10636 (P10636 whole entry, looked up): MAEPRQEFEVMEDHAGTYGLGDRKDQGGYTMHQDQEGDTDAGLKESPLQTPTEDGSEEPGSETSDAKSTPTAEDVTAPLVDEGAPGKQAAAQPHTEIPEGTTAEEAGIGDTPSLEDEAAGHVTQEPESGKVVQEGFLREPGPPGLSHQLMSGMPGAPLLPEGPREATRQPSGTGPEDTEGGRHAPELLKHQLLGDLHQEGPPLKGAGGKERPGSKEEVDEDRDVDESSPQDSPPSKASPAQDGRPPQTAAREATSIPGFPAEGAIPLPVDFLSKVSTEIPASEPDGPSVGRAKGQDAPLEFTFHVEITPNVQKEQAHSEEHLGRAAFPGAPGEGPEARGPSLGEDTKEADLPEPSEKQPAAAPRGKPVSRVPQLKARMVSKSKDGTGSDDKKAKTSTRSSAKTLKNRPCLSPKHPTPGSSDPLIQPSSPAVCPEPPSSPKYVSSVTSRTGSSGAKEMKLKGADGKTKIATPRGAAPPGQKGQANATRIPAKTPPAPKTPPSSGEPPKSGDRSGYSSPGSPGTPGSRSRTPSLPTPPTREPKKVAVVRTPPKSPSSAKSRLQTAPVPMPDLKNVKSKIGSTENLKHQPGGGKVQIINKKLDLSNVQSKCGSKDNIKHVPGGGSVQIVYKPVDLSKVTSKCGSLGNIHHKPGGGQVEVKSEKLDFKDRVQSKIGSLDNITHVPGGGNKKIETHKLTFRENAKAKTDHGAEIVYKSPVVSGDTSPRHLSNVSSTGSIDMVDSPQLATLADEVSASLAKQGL
row,Structure (SMILES),Potency
1,Cc1ccc(C(=O)NNc2cc(N3CCCC3)nc(N3CCCC3)n2)cc1,"inconclusive: 15.8 µM [inhibitor, partial curve]"
2,O=C(CCN1CCN(S(=O)(=O)c2ccc(Cl)cc2)CC1)Nc1ccccc1F,inactive
3,Cc1ccc2c(=O)cc(C(=O)Nc3ccc(S(=O)(=O)N4CCCCCC4)cc3)oc2c1C,inactive
4,CCCCOc1ccc(CNC(=O)CCCN2C(=O)CSc3c2c(C)nn3-c2ccccc2)cc1,"inconclusive: 22.4 µM [inhibitor, single point]"
5,CCOC(=O)c1ccccc1NC(=O)c1sc2nc3n(c(=O)c2c1C)CCCC3,"inconclusive: 11.2 µM [inhibitor, partial curve, poor fit]"
6,COc1ccc(Cl)cc1NC(=O)Cn1cccc1,inactive
7,CCOC(=O)C1=C(C)Nc2ccccc2N=C1NC(=O)/C=C/c1ccc(OC)cc1OC,"inconclusive: 15.8 µM [inhibitor, partial curve]"
8,CSc1ncc(Cl)c(C(=O)N(Cc2ccc(N(C)C)cc2)Cc2ccco2)n1,"inconclusive: 14.1 µM [inhibitor, partial curve]"
9,Cc1c(Cl)cccc1NC(=O)C(C)n1nnc2sc3c(c2c1=O)CCCC3 (stereo unspecified),inactive
10,Cc1c(C)n(C)c2ccc(C(=O)N3CCN(c4ccccc4)CC3)cc12,"inconclusive: 28.2 µM [inhibitor, single point]"
11,CC(C)N1CCc2c(sc(NC(=O)c3cc(-c4cccs4)nc4ccccc34)c2C(N)=O)C1,"inconclusive: 15.8 µM [inhibitor, partial curve]"
12,COCOc1cc(OC)ccc1C(=O)/C=C/c1ccc2c(c1)OCO2,"inconclusive: 31.6 µM [inhibitor, partial curve] and inconclusive: 12.6 µM [inhibitor, partial curve]"
13,CCOc1ccc(-c2[nH]ncc2Oc2cccc(OC)c2)c(O)c1,"inconclusive: 44.7 µM [inhibitor, single point]"
14,CCCC(C)C(=O)NCc1ccncc1 (stereo unspecified),"inconclusive: 25.1 µM [activator, partial curve]"
15,Cc1nnc(N/N=C/c2c(O)n(-c3cccc(C(F)(F)F)c3)c(=O)c3ccccc23)[nH]c1=O,"inconclusive: 25.1 µM [inhibitor, single point]"
16,CCOC(=O)N1CCC(NC(=O)Cn2cc3c(n2)CCC(C)C3)CC1 (stereo unspecified),inactive
17,CCCC(=Nc1ccc(N)cc1)C1=C(O)C(C(=O)OC)C(C)(C)CC1=O (stereo unspecified),active: 7.94 µM
18,Cn1c(SCc2nc(-c3ccc(Cl)cc3)no2)nnc1-c1cccs1,"inconclusive: 17.8 µM [inhibitor, single point]"
19,CC(C)=CCCC1(C)C=Cc2c(c(C)cc3c2[nH]c2ccccc23)O1 (stereo unspecified),"inconclusive: 15.8 µM [inhibitor, partial curve]"
20,CC(C)(C)OC(=O)C1=NOC2(C=CC(=O)C=C2)C1,active: 2.51 µM and active: 12.6 µM
21,COc1cc2cc(C#N)c(SCC(=O)N3CCOCC3)nc2cc1OC,inactive
22,CCOC(=O)c1c(NC(C)=O)c2c3c(sc2n1Cc1nc(-c2ccccc2C)oc1C)CCCC3,inactive
23,O=C(Nc1nc2ccc(F)cc2s1)c1nc(S(=O)(=O)Cc2ccccc2)ncc1Cl,active: 7.08 µM

row,Structure (SMILES),Potency
1,COc1ccc(NC(=O)CSc2nc3c(oc4ccccc43)c(=O)n2-c2ccc(C)c(C)c2)cc1,inactive
2,Cc1cccc(N=Cc2[nH]c3ccc(Br)c(Cl)c3c2O)c1,"inconclusive: 5.01 µM [inhibitor, full curve]"
3,COCCN=C1Sc2nc3ccc(C)cc3cc2CN1Cc1cccs1,"inconclusive: 39.8 µM [inhibitor, single point]"
4,Nc1ccc2ncccc2c1,active: 15.8 µM
5,O=C(Cn1c(=O)n(-c2ccc(F)c(Cl)c2)c(=O)c2sc3ccccc3c21)NC1CCCC1,inactive
6,O=C(c1ccc(S(=O)(=O)c2ccccc2Cl)c([N+](=O)[O-])c1)N1CCN(Cc2ccccc2)CC1,"inconclusive: 31.6 µM [inhibitor, single point]"
7,O=C(CCSc1nc(-c2ccco2)cc(C(F)(F)F)n1)N1CCN(c2ccccn2)CC1,"inconclusive: 25.1 µM [inhibitor, single point]"
8,Cc1ccc2c(c1)cc1c(=O)n(CC(=O)NC3CCCCC3)nc(C)n12,inactive
9,CCN1CCc2c(sc(NC(=O)c3ccc(S(=O)(=O)N4CCOCC4)cc3)c2C(N)=O)C1,inactive
10,CC(=O)c1cc(C(=O)Nc2cc(C)cc(C)c2)c2ccccn12,inactive
11,Cc1cc(NC(=O)CCC(=O)N(c2ccccc2)C(C(=O)NC2CCCC2)c2ccccc2)no1 (stereo unspecified),inactive
12,CN1CCSc2ccc(C(=O)Nc3cccc(F)c3)cc21,"inconclusive: 28.2 µM [inhibitor, partial curve]"
13,CN(Cc1ccco1)c1nc(-c2cccc(C#N)c2)nc2ccccc12,"inconclusive: 22.4 µM [inhibitor, partial curve, poor fit]"
14,COc1cc(OC)c(NC(=O)NCc2ccc3c(c2)CCN3C(=O)c2ccccc2)cc1Cl,"inconclusive: 8.91 µM [inhibitor, partial curve]"
15,COC(=O)c1sc2cccc(F)c2c1S(=O)(=O)N1CCN(c2ccc(F)cc2)CC1,inactive
16,O=C(COc1ccccc1)NN1C(=O)CSC1=S,"inconclusive: 12.6 µM [inhibitor, partial curve]"
17,Cc1ccc(C2=N/C(=C/c3cccs3)C(=O)N2Nc2ccccc2)cc1,"inconclusive: 12.6 µM [inhibitor, partial curve]"
18,Cc1ccc(C(=O)Oc2ccccc2N2C(=O)C3C4CCC(C4)C3C2=O)cc1 (stereo unspecified),inactive
19,O=C(Cc1cccc2ccccc12)N/N=C/C=C/c1cccc([N+](=O)[O-])c1,"inconclusive: 11.2 µM [inhibitor, partial curve]"
20,O=C(NC(=S)NCCO)c1sc2ccccc2c1Cl,inactive
21,COc1ccc(OC)c(NC(=O)Cn2cc(C=O)c3ccccc32)c1,inactive
22,CN(NC(=O)/C=C/C(=O)O)c1ncc(C(F)(F)F)cc1Cl,inactive
23,O=S(=O)(c1ccc(-c2cn3ccccc3n2)cc1)N1CCOCC1,"inconclusive: 14.1 µM [inhibitor, partial curve]"
